# The supplement of paper PMC10338343
# ± gives the standard deviation. The entries are a selection whose mix differs from that of the whole data set.
# System: MIWI (PIWIL1) piRISC loaded with L1MC piRNA (30 nt)
# Test: pre-steady-state target cleavage rate (min^-1); MIWI and MILI are mouse PIWI proteins and EfPiwi is from a freshwater sponge; tags in brackets are library labels; higher = faster piRNA-guided slicing of the target
# Details: guide: L1MC piRNA 5'p-UAACUAAAUACUAUGCAAGCUGUAGGUCCU
# How it was run: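 Active affinity-purified piRISC carrying one synthetic guide (1 nM) was mixed with a transcribed, DNA-blocked target RNA library […] in HEPES–potassium acetate buffer at 33 °C for 0–8 or 0–960 min, with or without 500 nM GTSF1 partner protein. Uncleaved targets were then sequenced and normalised to depth and to weakly complementary targets. Three trials were pooled, and k3 was capped at 0.0001 min^-1. A burst-and-steady-state fit was applied to obtain the pre-steady-state cleavage rate.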
# [1] = auxiliary factor: 500 nM mouse GTSF1
# [2] = auxiliary factor: none (no GTSF1)
# 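Note: 1 nM active piRISC with 0.1 nM target library at 33 °C single turnover.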
Sequence,pre-steady-state target cleavage rate [1],pre-steady-state target cleavage rate [2]
UCCACCUACAGCCUUGCAUAGUAUUUAGUUA,0.944 ± 0.05,0.039 ± 0.0056
UCCACCUACAGCUUCAUAGUAUUUAGUUA,0.736 ± 0.052,0.00758 ± 0.0015
UCGACCUACAGCUUGCAUAGUAAUUACUUA,0.231 ± 0.031,0.0184 ± 0.0043
UCCUGGUAAAGCUUGCAUAGUAUUUAGUUA,0.551 ± 0.037,0.0419 ± 0.0086
AGGACCUACACCUUGCAUAGUAAUUAGUUA,0.861 ± 0.074,0.0261 ± 0.0063
UCCACCUACAGCUUGCAUAGAAUUUAGAAA,0.196 ± 0.035,0.00413 ± 0.0022
UCCUGGAACAGCUUGCAUAGUAAUUAGUAA,0.309 ± 0.034,0.00877 ± 0.0031
UCCUCGUACAGCUUGCAUAGUAUUUAGUAA,0.903 ± 0.048,0.0263 ± 0.0049
AGGACCUAGAGCUUGCAUUGUAUUUAGUUA,0.965 ± 0.062,0.0342 ± 0.0095
UCGACCUACUCCUUGCAUAGUAUUUAGAAA,0.265 ± 0.039,0.00587 ± 0.0015
AGGACCUACACCUUGCAUAGUAUUUACAAA,0.441 ± 0.059,0.0127 ± 0.0031
UCCUGGAUCAGCUUGCAGAGUAUUUAGUUA,0.405 ± 0.038,0.0221 ± 0.0054
UCCUGGAUGUGCUUGCAUAGUAUUUCAGUUA,0.0886 ± 0.017,0.00753 ± 0.0028
UCGACCAACAGCUUGCAUUGUAUUUAGUUA,0.973 ± 0.028,0.0383 ± 0.008
UCGACCUACAGCUUGAUAGUAUUUAGUUA,1.08 ± 0.067,0.00731 ± 0.0024
AGGACCUAGAGCUUGCAUAGUAUUUACUUA,0.157 ± 0.021,0.0219 ± 0.0043
UGGACCUAAAGCUUGCAUAGUAUUUAGUUA,0.879 ± 0.049,0.0413 ± 0.0088
UCCUGGAACAGCUUGCAUACUAAUUAGUUA,0.139 ± 0.013,0.00603 ± 0.0023
AGGACCUACAGCUUGCAUACUAUUUAGAUA,0.168 ± 0.034,0.0118 ± 0.0035
UCCUGGAUGUCCUUGCAUAGUAAUUUAGUUA,0.00935 ± 0.0055,0.0037 ± 0.0027
UCCUGGAUCAGCUUGCAUAGUAUUUAGUGUA,0.79 ± 0.047,0.033 ± 0.007
UGGACCUACAGCAUGCAUAGUAUUUACUUA,0.397 ± 0.042,0.023 ± 0.0053

Sequence,pre-steady-state target cleavage rate [1],pre-steady-state target cleavage rate [2]
ACGACCUACAGCUUGCAUAGAAUUUAGUUA,0.533 ± 0.038,0.0408 ± 0.01
UCCUGGAAGUCCUUGCAUAGUAUUUAGUUA,0.175 ± 0.02,0.0104 ± 0.0031
UCCACCAACAGGUUGCAUAGUAUUUAGUUA,0.838 ± 0.052,0.0297 ± 0.0047
UGGACCUACAGCUUGCUUAGUAUUUAGUAA,1.03 ± 0.073,0.0335 ± 0.0097
UGGACCUACAGGUUGCAUAGAAUUUAGUUA,0.222 ± 0.018,0.0125 ± 0.004
UGGACCUACAGCUUGCAUAGUAUUAAGUAA,0.335 ± 0.037,0.0164 ± 0.0052
UCCACCUAGAGCAUGCAUAGUAUUUAGUUA,0.621 ± 0.096,0.0151 ± 0.0026
UCCUGCUACACCUUGCAUUGUAUUUAGUUA,0.492 ± 0.031,0.0232 ± 0.0039
UCCACCUAGAGCUUGCAUAGUAUUUUGUUA,1.27 ± 0.18,0.0301 ± 0.0047
UCGUCCUACAGCUUGCAUAGAAUUUAGUUA,0.416 ± 0.024,0.0191 ± 0.0046
UCCUGGAUGUGCUAUGCAUAGUAUUUAGUUA,0.273 ± 0.025,0.00862 ± 0.0031
UCCUGCUAGAGGUUGCAUAGUAUUUAGUUA,0.551 ± 0.041,0.00669 ± 0.0016
UCCUCCUACAGCUUGCAUAGUAUUCUAGUUA,0.721 ± 0.072,0.0169 ± 0.0046
UCCUCCUAGAGCUUGCAAAGUAUUUAGUUA,0.829 ± 0.049,0.0237 ± 0.0051
UCCUGGAAGAGCUUGCAUAGAAUUUAGUUA,0.211 ± 0.023,0.0134 ± 0.0054
AGGACCAUGAGCUUGCAUAGUAUUUAGAAA,0.214 ± 0.023,0.00613 ± 0.0024
UCGACCUACAGCUUGCAUAGUUUAUAGUUA,0.192 ± 0.025,0.0113 ± 0.0034
UCGACGUACAGGUUGCAUAGUAUUUAGUUA,1.21 ± 0.042,0.0425 ± 0.0075
UCCUGGAUGUCCUUGCAUAGUAUUUAGGUA,0.0254 ± 0.0077,0.00394 ± 0.0024
UCCUGGAUCAGCUUGCAUAGAAUUUACUUA,0.0972 ± 0.025,0.0151 ± 0.0061
UCCUGGUACAGCUUUGCAUAGUAUUUAGUUA,0.505 ± 0.043,0.0154 ± 0.0037
UCCUCCUUCAGCUUGCAUAGUAUUUAGAUA,0.392 ± 0.034,0.0153 ± 0.0027

Sequence,pre-steady-state target cleavage rate [1],pre-steady-state target cleavage rate [2]
AGGACCUACACGUUGCAUAGUAUUUAGAAA,0.43 ± 0.045,0.00563 ± 0.0027
UCCACCUACAGCUUGCAUAGUACUUUAGUUA,0.447 ± 0.035,0.00964 ± 0.0027
UCCUGGUACAGCUUGCAUAGUAUUUAGUGA,0.289 ± 0.036,0.0296 ± 0.0058
UCCUCCUACAGCUUGCUUAGUAAUUAGUUA,0.658 ± 0.03,0.00861 ± 0.0025
AGGACCUACACCUAGCAUAGUAUUUAGUUA,1.01 ± 0.04,0.029 ± 0.005
UCGACCUACUCGUUGCAUAGUAUUUAGAAA,0.19 ± 0.023,0.00251 ± 0.0018
UGGACCUAGAGCUUGCAUAGUAUUUAGUUA,1.03 ± 0.073,0.0561 ± 0.0095
UCCUGCUACAGGAAGCAUAGUAUUUAGUUA,0.815 ± 0.072,0.00481 ± 0.0021
UCGACCUUCAGCUUGCAUAGAAUUUAGUUA,0.306 ± 0.031,0.0146 ± 0.0037
AGGACCUACUGCUAGCAUAGUAUUUAGUUA,1.17 ± 0.068,0.0412 ± 0.0075
UCCUGGUAGAGCUUGCAUACUAUUUAGUUA,0.121 ± 0.018,0.0227 ± 0.006
AGGACCUACAGCUUGCAUAGUACUUAGUUA,0.929 ± 0.07,0.0524 ± 0.0094
UCCUGGUACAGCUUGCUAUGUAUUUAGUUA,0.0851 ± 0.01,0.00758 ± 0.0022
UGGACCUACUCGUUGCAUAGUAUUUAGUUA,0.6 ± 0.049,0.0163 ± 0.0039
UCCUGGAUCAGCUUGCUUAGUAUUUACUUA,0.492 ± 0.038,0.0215 ± 0.0046
UCCUGGAACAGCAUGCAUAGUUUUUAGUUA,0.24 ± 0.024,0.0229 ± 0.0057
UCCUGGAAGAGCUUGCAAAGUAUUUAGUUA,0.735 ± 0.037,0.028 ± 0.007
UCCUCCUACAGCUUGCAUAGUAUUAUAGUUA,0.785 ± 0.033,0.0148 ± 0.0032
UCCUGGUUCAGCUUGCAUACUAUUUAGUUA,0.232 ± 0.026,0.02 ± 0.005
UGGACGUACAGCUUGCAUAGUAUUUAGAAA,0.41 ± 0.048,0.0181 ± 0.0049
UCCUGGAUCAGCUUGCAUAGUUAAUAGUAA,0.013 ± 0.0059,0.00328 ± 0.003
UCCUGCAACAGCUUGCAUAGUAUAUAGUUA,0.844 ± 0.063,0.0237 ± 0.0057
